The campaign covered roughly 360,000 compounds. About 7,500 (2.1%) were called active. The shares of active, inactive and inconclusive entries below differ from those in the screen. Calls come from the whole dose curve; as a rule, active = well fitted cell-killing curve with a large enough effect; inconclusive = small, poorly fitted or top-dose-only effect, or effect the other way, or another doubt; inactive = no such curve, though single readings can be large or run the other way. Potencies of inconclusive entries are left out as doubtful fits.
Experiment: qHTS for induction of synthetic lethality in tumor cells producing 2HG: qHTS for the HT-1080-IDH1KD cell line;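 for activity, negative = toxicity: 0% = DMSO wells and -100% = cell-free medium wells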
Conditions: HT-1080 IDH1 knockdown viability, ATP luminescence, 48 h; activity, negative = toxicity: at 46.1 µM (top of the series) unless noted
In short: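 Knockdown cells (IDH1KD HT-1080) received compounds 2 h after plating at 750 cells/well and were kept 48 h at 37 °C in 5% FBS RPMI. A CellTiter-Glo luminescence read gave % activity for curve fitting.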
Potency is the fitted concentration of half-maximal effect; tags give direction and shape of the fitted curve.

Row | SMILES | Potency | activity, negative = toxicity
1 | CC(C)(C)CC(C)(C)c1ccc(O)c(Cc2ccc(Cl)cc2Cl)c1 | active: 18.4 µM | –
2 | O=C(CNc1cccc2ccccc12)N/N=C/C(Br)=C/c1ccccc1 | inconclusive [cytotoxic, single point] | –
3 | S=c1sc2c(Cl)ncnc2n1-c1ccccc1 | inconclusive [cytotoxic, single point] | –
4 | COc1cc(F)ccc1-c1csc(C(C)(O)c2ccccc2)n1 (configuration not stated) | inconclusive [cytotoxic, single point] | –
5 | O=C(Cc1ccc(Cl)cc1)NCCS(=O)(=O)N1CCN(c2ccccc2F)CC1 | inconclusive [cytotoxic, single point] | –
6 | O=S(=O)(Nc1cccnc1Cl)c1ccc2c(c1)OCCO2 | – | inactive: -5.48%
7 | Cc1cc(C)nc(SC2=CS(=O)(=O)c3ccccc32)n1 | inconclusive [cytotoxic, single point] | –
8 | CCOC(=S)NC(=O)c1sc2ccccc2c1Cl | inconclusive [cytotoxic, single point] | –
9 | COc1cccc(C(O)c2nc(-c3ccc4ccccc4c3)cs2)c1 (configuration not stated) | inconclusive [cytotoxic, single point] | –
10 | O=C(Nc1nccs1)c1ccc(S(=O)(=O)NCC2CCCCC2)cc1 | inconclusive [cytotoxic, partial curve, poor fit] | –
11 | CC(=O)C(=Cc1cccc(C#N)c1)C(=O)c1ccccc1 | inconclusive [cytotoxic, single point] | –
12 | N#Cc1c(N)nc2c3c(sc(=N)c2c1N)NC(=O)CC3c1ccccc1Cl (configuration not stated) | inconclusive [cytotoxic, single point] | –
13 | COc1cccc(OC)c1OCCCN1CCC(Cc2ccccc2)CC1 | inconclusive [cytotoxic, single point] | –
14 | O=C(NNC(=S)Nc1cccc(Cl)c1)c1ccccc1 | inconclusive [cytotoxic, single point] | –
15 | CSC1(SC2=NCCN2)SC2(NCCN2)S1 | inconclusive [cytotoxic, single point] | –
16 | Cc1ccc(C)c(NS(=O)(=O)c2cc(C(=O)Nc3ccccc3-c3ccccc3)ccc2C)c1 | inconclusive [cytotoxic, single point] | –
17 | COc1ccc(S(=O)(=O)Nc2ccccc2-c2nc3ccccc3[nH]c2=O)cc1 | inconclusive [cytotoxic, partial curve] | –
18 | COc1ccc(CC(C)N2CCN(c3cccc(C(F)(F)F)c3)CC2)cc1OC (configuration not stated) | inconclusive [cytotoxic, single point] | –
19 | Cc1ccc(C)c(N2CCN(C(=O)c3ccc4nsnc4c3)CC2)c1 | active: 9.2 µM | –
20 | C/C=C/COC(=O)c1[nH]c2c(c1C)C(=O)CC(c1ccco1)C2 (configuration not stated) | active: 0.651 µM | –
21 | CCC(C)c1ccc(O)c(NC(=S)NC(=O)c2cccnc2)c1 (configuration not stated) | inconclusive [cytotoxic, partial curve] | –
22 | CCN(CC)c1ccc(/C=N/NC(=S)NC)c(O)c1 | – | inactive: -16.6%
23 | COc1ccc(CCCNC(=O)C2Cc3c(-c4cccc(C(C)=O)c4)ccnc3O2)cc1 (configuration not stated) | inconclusive [cytotoxic, full curve] | –
24 | O=C1COc2ccc(C(=O)CSc3nnc(Cc4cccs4)n3-c3ccc(Cl)cc3)cc2N1 | inconclusive [cytotoxic, single point] | –

Row | SMILES | Potency | activity, negative = toxicity
25 | COc1ccc(C(=O)/C(=C\c2ccco2)N2C=CC=CC2=C(C#N)C#N)cc1 | active: 2.91 µM | –
26 | Cc1ccc(SCCCn2cncn2)cc1 | – | inactive: 1.11%
27 | Cc1ccc(-c2noc(CN(C(=O)c3cccc(Br)c3)C(C)C)n2)cc1 | – | inactive: -9.05%
28 | Cc1cccc(C(=O)NC(=S)N2CCN(C)CC2)c1 | active: 10 µM | –
29 | O=C1CC(=O)CC(c2ccccc2)C1 | – | inactive: 3.68%
30 | Cc1ccc(NC=C(S(=O)(=O)c2ccccc2)S(=O)(=O)c2ccccc2)c(C)c1 | – | inactive: 11.7%
31 | O=C(c1ccccc1)N1N=C(c2ccccc2)CC1c1ccccc1O (configuration not stated) | active: 25.9 µM | –
32 | Cc1ccc(F)cc1NC(=O)COC(=O)C1CC2CCCC(C1)C2=O (configuration not stated) | – | inactive: 0.246%
33 | Cc1ccc(C2=NCCn3c2c2ccc([N+](=O)[O-])cc2[n+]3[O-])cc1 | – | inactive: -6%
34 | Cn1c(-c2ccccc2)cc2c3no[n+]([O-])c3ccc21 | active: 4.11 µM | –
35 | CCCCCCSc1ccc([C@@H]2[C@@H]3C(=O)N(C)C(=O)[C@@H]3[C@]3(C(=O)OC)CCCCN23)cc1 | inconclusive [cytotoxic, single point] | –
36 | O=C(COc1ccc(F)cc1)N1c2ccccc2CCc2ccccc21 | – | inactive: 0.589%
37 | CN(C)C(CNC(C(=O)Nc1ccc([N+](=O)[O-])cc1Br)c1ccccc1)c1ccccc1 (configuration not stated) | active: 23.1 µM | –
38 | CCOc1ccc2[nH]c3c(NCCc4ccc(OC)c(OC)c4)ncnc3c2c1 | inconclusive [cytotoxic, partial curve] | –
39 | COc1ccc(N2CCN(c3cc(C(=O)Nc4cc(OC)c(OC)c(OC)c4)ncn3)CC2)cc1OC | inconclusive [cytotoxic, partial curve, poor fit] | –
40 | CCCCN(CCCNC(=O)C1CCN(C(=O)c2cc3sccc3n2C)CC1)Cc1ccccc1 | inconclusive [cytotoxic, single point] | –
41 | Cc1cc(NC(=O)CSc2nc3c([nH]c4ccccc43)c(=O)n2-c2ccccc2F)no1 | inconclusive [cytotoxic, single point] | –
42 | CCC1=Nc2cc(C(=O)NCC3CCCO3)ccc2Sc2ccc(Cl)cc21 (configuration not stated) | active: 16.4 µM | –
43 | CCOC(=O)c1c(NC(=O)CSc2nnc(CNc3ccc(Cl)cc3)o2)sc(C)c1C | – | inactive: -24.6%
44 | CN(C)c1ccc(N/C=C/C(=O)c2ccc(F)cc2)cc1 | inconclusive [cytotoxic, single point] | –
45 | COc1ccc(OCC(=O)N/N=C/c2cccc3cccnc23)cc1 | inconclusive [cytotoxic, partial curve] | –
46 | Cc1c(Cl)cccc1Nc1n[nH]c(=S)s1 | – | inactive: 20.9%
47 | COc1ccc(C(=O)c2coc3c2C(=O)C(=O)c2ccccc2-3)cc1 | inconclusive [cytotoxic, single point] | –
48 | COc1ccc(N=Cc2c(O)cc(C)oc2=O)cc1 | inconclusive [cytotoxic, full curve] | –

Row | SMILES | Potency | activity, negative = toxicity
49 | CCC(Sc1nc2ccccc2c(=O)[nH]1)C(=O)Nc1ccc(C(C)=O)cc1 (configuration not stated) | – | inconclusive: -31.8% [cytotoxic]
50 | Cc1ccc(NC(=O)C2(C)CCN2Cc2csc3ccccc23)cc1 (configuration not stated) | inconclusive [cytotoxic, single point] | –
51 | Cc1ccc(-c2nnc(-c3ccc4ccccc4c3)o2)cc1 | active: 9.2 µM | –
52 | CCCC1=Nc2cc(C(=O)NCCN3CCOCC3)ccc2Sc2ccc(C)cc21 | inconclusive [cytotoxic, single point] | –
53 | COc1ccc(/C=N/Nc2nonc2N)cc1 | – | inactive: 4.63%
54 | CCOc1ccc(S(=O)(=O)N(C)C)cc1-c1nc2c(C(C)(C)C)nn(C)c2c(=O)[nH]1 | – | inconclusive: -1.46% [cytotoxic]
55 | CCOc1ccc(NC(=S)NNc2ccnc3cc(Cl)ccc23)cc1 | inconclusive [cytotoxic, single point] | –
56 | Cc1ccc(/C=N/NC(=O)c2ccc(N(C)S(=O)(=O)c3ccccc3)cc2)cc1 | inconclusive [cytotoxic, single point] | –
57 | COCCn1c(C)cc(C(=O)CSc2ncn[nH]2)c1C | – | inactive: -0.938%
58 | CCc1cccc(Nc2c([N+](=O)[O-])cc(C(=O)N3CC(=O)Nc4ccccc43)cc2[N+](=O)[O-])c1 | inconclusive [cytotoxic, single point] | –
59 | CCc1ccc(CNC(=O)C2CCN(c3nnc(C)c4c(C)n(-c5ccc(C)cc5)nc34)CC2)cc1 | active: 14.6 µM | –
60 | NC(N)=N/N=C/c1ccc(OCc2ccc(Cl)cc2)cc1 | inconclusive [cytotoxic, single point] | –
61 | Cc1ccc2nc(Nc3nc(CSc4nnnn4-c4ccccc4)cc(=O)[nH]3)nc(C)c2c1 | – | inactive: 2.85%
62 | Cc1nnsc1S(=O)c1ccc(Br)cc1 (configuration not stated) | – | inactive: -1.11%
63 | Cc1cccc(N2CCN(C(=O)C3CCC(CNS(=O)(=O)c4cccs4)CC3)CC2)c1C (configuration not stated) | inconclusive [cytotoxic, partial curve] | –
64 | CN(C)CC(O)c1ccc(C=Cc2ccc(Cl)cc2)cc1 (configuration not stated) | active: 5.8 µM | –
65 | COc1cccc(NC(=O)c2cc(-c3ccncc3)nc3c(C)cc(C)cc23)c1 | inconclusive [cytotoxic, partial curve] | –
66 | CCCc1ccc(Oc2cn[nH]c2-c2ccc(O)c(C)c2O)cc1 | inconclusive [cytotoxic, single point] | –
67 | O=C1C(C=Nc2ccccc2O)=C(O)c2ccccc21 | active: 6.31 µM | –
68 | Oc1ccc(/C=N/Nc2ncnc3c2ncn3Cc2ccccc2)cc1O | inconclusive [cytotoxic, single point] | –
69 | CCC(=O)N[C@H]1C=C[C@H](CC(=O)OC)O[C@@H]1CO | – | inactive: 15.4%
70 | C=C1C(=O)[C@]23C[C@H]1CC[C@H]2[C@]1(C)[C@@H](OC(C)=O)CC[C@@](C)(C(=O)O)[C@H]1C[C@@H]3O | active: 5.8 µM | –
71 | O=C(Nc1cccnc1)c1ccc([N+](=O)[O-])s1 | inconclusive [cytotoxic, partial curve] | –
72 | Cc1ccc(-n2c(O)c(C=NCc3ccccn3)c3ccccc3c2=O)cc1C | inconclusive [cytotoxic, single point] | –

From PubChem BioAssay AID686971 (National Center for Advancing Translational Sciences (NCATS), 2013)
